Measurements reported in PubChem BioAssay AID1030 (National Center for Advancing Translational Sciences (NCATS), 2008).
The whole screen tested about 220,000 compounds, of which about 16,000 (7.3%) were called active. Inconclusive means that the source gave no clear call. Such entries were picked first, then a sample of the others. Calls follow the shape of the dose curve; as a rule, active = well fitted inhibition curve with a large enough effect (not every such curve was filed as active); inconclusive = small, poorly fitted or top-dose-only effect, or another doubt; inactive = no such curve, though single readings can be large or run the other way. Potencies of inconclusive entries are left out as doubtful fits.

target: Aldehyde dehydrogenase 1A1 (Homo sapiens) (UniProt P00352); assay: qHTS Assay for Inhibitors of Aldehyde Dehydrogenase 1 (ALDH1A1); settings: Purified ALDH1A1, NADH fluorescence, propionaldehyde substrate; series mostly up to 75.3 µM; activity, negative = inhibition: at the top concentration;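 as to activity, negative = inhibition: plate controls were no enzyme wells and a reference inhibitor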
Chain of UniProt P00352 (P00352 whole entry, looked up): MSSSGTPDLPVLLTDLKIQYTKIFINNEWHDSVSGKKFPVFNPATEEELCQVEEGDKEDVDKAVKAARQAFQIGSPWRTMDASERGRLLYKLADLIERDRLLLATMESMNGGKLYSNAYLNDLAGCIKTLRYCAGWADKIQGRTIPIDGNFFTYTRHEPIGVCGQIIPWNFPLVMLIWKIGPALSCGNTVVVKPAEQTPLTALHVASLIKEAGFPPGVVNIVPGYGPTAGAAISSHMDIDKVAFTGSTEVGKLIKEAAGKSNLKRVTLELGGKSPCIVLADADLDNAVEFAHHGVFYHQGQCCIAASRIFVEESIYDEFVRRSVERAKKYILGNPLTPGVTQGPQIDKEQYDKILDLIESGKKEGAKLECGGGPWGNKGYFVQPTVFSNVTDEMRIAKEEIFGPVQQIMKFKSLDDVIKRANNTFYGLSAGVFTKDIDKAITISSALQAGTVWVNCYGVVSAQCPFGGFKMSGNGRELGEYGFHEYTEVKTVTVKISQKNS
Potency is read from the fitted curve at half-maximal effect; tags tell the direction and shape of the fitted curve.

Row | SMILES | Potency | activity, negative = inhibition
1 | O=C(c1cnc2ccccn2c1=O)N1CCCc2ccccc21 | active: 8.91 µM | 
2 | Cc1ccc(-c2cc(C(=O)Nc3ccc(S(=O)(=O)Nc4ncccn4)cc3)c3ccccc3n2)cc1 | inconclusive [inhibitor, single point] | 
3 | Cc1ccc(O)c(N)c1 | inconclusive [inhibitor, single point] | 
4 | CCNc1nc(NC(C)C)nc(Oc2ccc(=O)n(C)n2)n1 |  | inactive: 10.5%
5 | CCOC(=O)c1csc(NC(=O)c2ccc(C#N)cc2)n1 |  | inactive: -7.87%
6 | Cc1ccc(NC(=O)c2sc(=S)n(-c3cc(C)ccc3F)c2N)cc1 | active: 12.6 µM | 
7 | CCCOc1ccc(N2CC(C(=O)Nc3ccc(N4CCOCC4)cc3)CC2=O)cc1 (stereo unspecified) |  | inactive: 0.172%
8 | C=CCn1c(SCC(=O)N2CCc3ccccc3C2)nc2sc(C)c(C)c2c1=O |  | inactive: -10.8%
9 | C/C(CCc1ccccc1)=N\NC(=O)c1ccccc1[N+](=O)[O-] | inconclusive [inhibitor, single point] | 
10 | CCCCNc1nc(C)nc2c1nc(-c1ccccc1)n2CCCN1CCCCC1C (stereo unspecified) | inconclusive [inhibitor, partial curve] | 
11 | COc1cc(-c2nnc(CSc3nnc4nc(C)cc(C)n34)o2)cc(OC)c1OC | inconclusive [inhibitor, single point] | 
12 | COc1ccccc1-n1c(=O)c2c3c(sc2n2c(=S)[nH]nc12)CCC3 |  | inactive: 2.88%
13 | CN(Cc1ccccc1)c1nc(-c2cccc([N+](=O)[O-])c2)nc2ccccc12 | inconclusive [inhibitor, single point] | 
14 | O=C(CCC1CCCC1)Nc1ccccc1-c1ccccc1 | active: 20 µM | 
15 | CCCSc1nc2c(c(=O)n(C)c(=O)n2C)n1Cc1ccc(C)cc1 | active: 25.1 µM | 
16 | Nc1nc(-c2ccccc2)nn1C(=O)c1ccco1 | inconclusive [inhibitor, partial curve] | 
17 | CCCC(=O)NC(c1cccs1)c1cc([N+](=O)[O-])c2cccnc2c1O (stereo unspecified) |  | inactive: 0.295%
18 | COc1ccc(Cn2nnnc2CN2CCC(c3nc4ccccc4s3)CC2)cc1 | inconclusive [inhibitor, single point] | 
19 | COc1ccc(/C=N/NC(=O)c2nc(-c3ccccc3)cc(-c3ccccc3)n2)cc1OC | inconclusive [inhibitor, single point] | 
20 | CC1CCC2C(=O)OC(CN=[N+]=[N-])CN2C1c1ccc(Br)cc1 (stereo unspecified) | inconclusive [inhibitor, single point] | 
21 | COCCCNCCOCCSc1ccc(Cl)cc1 | inconclusive [inhibitor, single point] | 
22 | CCCN(CC1CC1)C(=O)CSc1nnc(-c2ccco2)n1N | active: 31.6 µM | 
23 | CC(C)NC[C@@H](O)c1ccc(O)c2ncccc12 |  | inactive: -6.32% [at 13.5 µM]
24 | Cc1cnc(C(=O)OCC(=O)c2csc(N3CCCCC3)n2)cn1 | active: 17.8 µM | 
25 | Cc1ccc(OCC(=O)Nc2ccc(N3CCCC3)cc2)cc1C | inconclusive [inhibitor, single point] | 
26 | COc1ccc(-c2nc3ccccc3o2)cc1NC(=O)CSc1ccc(Cl)cc1 | inconclusive [inhibitor, single point] | 

Row | SMILES | Potency | activity, negative = inhibition
27 | COc1ccc(NC(=O)C(C)N2c3cccc4cccc(c34)S2(=O)=O)cc1OC (stereo unspecified) | inconclusive [inhibitor, single point] | 
28 | O=C(c1ccc2c(=O)n(-c3ccccc3)c(=S)[nH]c2c1)N1CCCCC1 | inconclusive [inhibitor, partial curve] | 
29 | CC1(C)CC(=O)C2=C(C1)OC(N)=C(C#N)C2c1cccs1 (stereo unspecified) | active: 22.4 µM | 
30 | NC(=O)c1sc2nc3c(c(-c4cccs4)c2c1N)CCCCC3 | inconclusive [inhibitor, single point] | 
31 | CCN(CC)CCN1C(=O)C(=O)/C(=C(/O)c2ccc(OC)c(OC)c2)C1c1ccccn1 (stereo unspecified) | active: 28.2 µM | 
32 | C#CC(C)OC(=O)C(C)NC(=O)c1ccccc1 (stereo unspecified) |  | inactive: 1.68%
33 | Cc1ccc2nsnc2c1S(=O)(=O)N1CCOCC1 | inconclusive [inhibitor, single point] | 
34 | CC/C(=N\O)c1c(O)c2c(n(-c3ccccc3)c1=O)CCCC2 |  | inactive: 0.49%
35 | N#Cc1nc(-c2ccccc2F)oc1NCCN1CCOCC1 | inconclusive [inhibitor, single point] | 
36 | CCC(C)(C)NC(=O)C(c1ccc(C)cc1)N(CCN1CCOCC1)C(=O)CNC(=O)c1cccs1 (stereo unspecified) |  | inactive: 7.2%
37 | CC(=O)N(C)c1ccc(NC(=S)NCC(C)C)cc1 |  | inactive: 1.48%
38 | O=C(NCC1CCCO1)c1cc2ccccc2oc1=O (stereo unspecified) | inconclusive [inhibitor, single point] | 
39 | O=C(NCc1ccco1)c1nn2cccnc2c1Cl |  | inactive: -8.83%
40 | CCN(c1ccc(NC(=O)COC(=O)CCc2cc(OC)c(OC)c(OC)c2)cc1)C(C)C | active: 17.8 µM | 
41 | Cc1cccc(-c2nnc3sc(-c4ccccc4C)nn23)c1 |  | inactive: -8.1%
42 | COCCn1c(SCC(=O)Nc2cc(C)on2)nnc1-c1ccco1 | inconclusive [inhibitor, partial curve] | 
43 | CCS(=O)(=O)c1ccc2oc(Nc3ccccc3Br)nc2c1 |  | inactive: -0.0078%
44 | CCOc1ccc2[nH]c(=O)c(CN(CCc3ccccc3)C(=O)N3CCCC3)cc2c1 | inconclusive [inhibitor, single point] | 
45 | O=S(=O)(c1cccc(NC(=S)N2CCN(c3ccccc3)CC2)c1)C(F)F | inconclusive [inhibitor, single point] | 
46 | CN(C)c1ccc(/C=N\S(=O)(=O)c2ccccc2)cc1 | active: 0.708 µM | 
47 | O=C(O)CCC(=O)c1ccc(Cl)cc1 |  | inactive: -1.93% [at 13.5 µM]
48 | O=C(NCc1ccccn1)NC12CC3CC(CC(C3)C1)C2 | inconclusive [inhibitor, single point] | 
49 | O=C1OCCC1Sc1nnc(-c2cccs2)n1Cc1ccccc1 (stereo unspecified) | active: 20 µM | 
50 | C[C@@H](N)/C(N)=N/O |  | inactive: -7.15% [at 13.5 µM]
51 | COn1c(-c2ccccc2)nc2c1CCc1nonc1-2 | active: 7.94 µM | 
52 | CN(C)c1ncc2nc(CCc3ccccc3)c(=O)n(Cc3cccs3)c2n1 | inconclusive [inhibitor, partial curve] | 

Row | SMILES | Potency | activity, negative = inhibition
53 | CC(=O)NCCn1c(SCC(=O)c2ccc(Cl)cc2)nc2ccccc2c1=O | inconclusive [inhibitor, partial curve] | 
54 | Cc1nc(N2CCN(C(=O)c3ccc(Cl)cc3)CC2)c(C#N)c2c1COC(C)(C)C2 | inconclusive [inhibitor, single point] | 
55 | c1cc2c3c(cccc3c1)NC1(CCCCC1)N2 |  | inactive: 1.01%
56 | CCOc1ccccc1N(CC)C(=O)Cn1ncc2c(=O)oc3ccccc3c21 | inconclusive [inhibitor, single point] | 
57 | CCN1/C(=C2\C(=O)N(C)C(=S)N2C)C=Cc2cc(C)ccc21 | inconclusive [inhibitor, single point] | 
58 | CCOc1ccccc1N1C(=O)CC(Sc2n[nH]c(-c3ccccc3)n2)C1=O (stereo unspecified) | active: 11.2 µM | 
59 | COc1ccc(CN(CCC(c2ccccc2)c2ccc(OC(C)C)cc2)C(=O)CCl)cc1OC (stereo unspecified) | active: 10 µM | 
60 | Cn1c(=O)[nH]c(=O)c2c1nc(CN(Cc1ccccc1)Cc1ccccc1)n2CCN1CCOCC1 | inconclusive [inhibitor, full curve] | 
61 | COc1cccc(C(=O)N(Cc2ccc(N(C)C)cc2)C2CCS(=O)(=O)C2)c1 (stereo unspecified) | active: 14.1 µM | 
62 | Cc1nc(NC(=O)c2cccc(Cl)c2)sc1C(=O)N1CCCCC1 | inconclusive [inhibitor, single point] | 
63 | CCOC(=O)c1ccc(NC(=O)CC2SC(=NC)N(C)C2=O)cc1 (stereo unspecified) | active: 12.6 µM | 
64 | C=C1c2c(Cl)ccc(O)c2C(O)=C2C(=O)[C@]3(O)C(O)=C(C(N)=O)C(=O)C(N(C)C)C3C(O)C12 (stereo partly specified) | inconclusive [inhibitor, partial curve] | 
65 | Fc1ccc(-c2nn3c(C4COc5ccccc5O4)nnc3s2)cc1 (stereo unspecified) | active: 31.6 µM | 
66 | O=c1c2ccccc2c(-c2ccccc2)nn1Cc1c(Cl)cccc1Cl | inconclusive [inhibitor, single point] | 
67 | CC1CCN(c2ccc(NC(=O)c3ccccc3[N+](=O)[O-])cc2)CC1 |  | inactive: -15.9%
68 | NC(=O)C1CCN(C(=O)c2ccc(NC3=NC4CS(=O)(=O)CC4S3)cc2)CC1 (stereo unspecified) |  | inactive: 5.96%
69 | Cc1oc(-c2cc(F)ccc2F)nc1CN1CCN(c2cnccn2)CC1 | inconclusive [inhibitor, single point] | 
70 | c1ccc(CCCCNCC2COc3ccccc3O2)cc1 (stereo unspecified) | inconclusive [inhibitor, single point] | 
71 | CCc1ccc2c(c1)cc(CN(Cc1ccco1)C(C)=O)c1nnnn12 | inconclusive [inhibitor, partial curve] | 
72 | Cc1ccc(-c2csc(NC(=O)CCNC(=O)c3ccccc3Cl)n2)cc1 |  | inactive: -15.7%
73 | Cc1ncoc1C(=O)N1CCCC(C(=O)c2cccc3ccccc23)C1 (stereo unspecified) |  | inactive: 0.057%
74 | Cn1c(=O)c(-c2cc(F)cc(F)c2)nc2cnc(Oc3cccc(Cl)c3)nc21 | inconclusive [inhibitor, single point] | 
75 | Cn1c(C(C#N)C(=O)c2sc3ccccc3c2Cl)nc2ccccc21 (stereo unspecified) | inconclusive [inhibitor, full curve] | 
76 | Cc1nc2ccc(NC(=O)N3CCN(c4ccccn4)CC3)cc2s1 | inconclusive [inhibitor, single point] | 
